In the supplement of paper PMC8285479:
± gives the standard deviation of the averaged measurements. In all, about 1,900 compounds were measured (“normalised cell viability (NPI; 0 = phenylarsine oxide control, 1 = DMSO control)”: median about 1, lowest 2% from about 0.039 on). Some of the results follow.

Test system: NCI-H1944
Experiment: normalised cell viability (NPI; 0 = phenylarsine oxide control, 1 = DMSO control) (fraction of DMSO control); NCI-H1944 is a non-small cell lung cancer line; higher = more viable cells (less compound toxicity)
Details: 6 days
[1] = glucocorticoid arm: hydrocortisone 2.75 uM co-treatment, compound 1 µM
[2] = glucocorticoid arm: hydrocortisone 2.75 uM co-treatment, compound 5 µM
[3] = glucocorticoid arm: hydrocortisone 2.75 uM pre-treated 2 days and continued, compound 1 µM
[4] = glucocorticoid arm: hydrocortisone 2.75 uM pre-treated 2 days and continued, compound 5 µM
[5] = glucocorticoid arm: vehicle, compound 1 µM
[6] = glucocorticoid arm: vehicle, compound 5 µM
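Note: CTB read-out in 384-well plates, mean of triplicate wells, normalised per plate against 1 µM phenylarsine oxide and 0.1% DMSO, compounds added 24 h after seeding.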

Row | SMILES | normalised cell viability [1] | normalised cell viability [2] | normalised cell viability [3] | normalised cell viability [4] | normalised cell viability [5] | normalised cell viability [6]
1 | COc1cc(Nc2ncc(F)c(Nc3ccc4c(n3)NC(=O)C(C)(C)O4)n2)cc(OC)c1OC [R406(free base)] | 0.748 ± 0.024 | 0.826 ± 0.034 | 0.854 ± 0.017 | 0.88 ± 0.08 | 0.874 ± 0.025 | 0.96 ± 0.016
2 | COc1ccc(C(=O)Nc2sc3c(c2C(N)=O)CCCC3)cc1OC | 0.987 ± 0.01 | 0.943 ± 0.036 | 0.954 ± 0.014 | 0.972 ± 0.025 | 0.999 ± 0.01 | 0.982 ± 0.012
3 | COc1ccc(-c2ccc(=N)n(CCCC(=O)O)n2)cc1 | 0.988 ± 0.007 | 1 ± 0.016 | 1.02 ± 0.026 | 1 ± 0.015 | 1.01 | 0.996 ± 0.0069
4 | CSc1ccc(C(=O)c2[nH]c(=O)[nH]c2C)cc1 [Enoximone] | 0.997 ± 0.012 | 0.964 ± 0.054 | 0.999 ± 0.01 | 0.973 ± 0.016 | 0.9957 ± 0.0038 | 0.9913 ± 0.0035
5 | S=C(Nc1ccccc1)Nc1nccs1 [1-Phenyl-3-(2-thiazolyl)-2-thiourea] | 1.017 ± 0.0058 | 1.04 ± 0.017 | 1.02 ± 0.015 | 0.903 ± 0.24 | 0.999 ± 0.0017 | 1.02 ± 0.011
6 | CS(=O)(=O)c1cccc(CNc2nc(Nc3ccc4c(c3)CCC(=O)N4)ncc2C(F)(F)F)c1 | 0.889 ± 0.017 | 0.736 ± 0.026 | 0.851 ± 0.014 | 0.839 ± 0.077 | 0.99 ± 0.011 | 0.954 ± 0.018
7 | CC1(C)CCC(CN2CCN(c3ccc(C(=O)NS(=O)(=O)c4ccc(NCC5CCOCC5)c([N+](=O)[O-])c4)c(Oc4cnc5[nH]ccc5c4)c3)CC2)=C(c2ccc(Cl)cc2)C1 | 0.9903 ± 0.0095 | 1.02 ± 0.021 | 0.996 ± 0.012 | 1.03 ± 0.01 | 0.9933 ± 0.0091 | 0.9943 ± 0.0098
8 | CC(C)(C)n1nc(-c2ccc(Cl)cc2)c2c(N)ncnc21 | 0.866 ± 0.017 | 0.799 ± 0.024 | 0.822 ± 0.023 | 0.805 ± 0.032 | 0.957 ± 0.012 | 0.965 ± 0.029
9 | C/C=C1\NC(=O)[C@H]2CSSCC/C=C/[C@H](CC(=O)N[C@H](C(C)C)C(=O)N2)OC(=O)[C@H](C(C)C)NC1=O [Romidepsin (FK228, Depsipeptide)] | 0.00704 ± 0.0021 | 0.000455 ± 0.00053 | 0.00593 ± 0.0021 | 0.000393 ± 0.00068 | 0.00559 ± 0.0012 | 2.1e-05 ± 0.00023
10 | C/C=C1\NC(=O)[C@H]2CSSCC/C=C/[C@H](CC(=O)N[C@H](C(C)C)C(=O)N2)OC(=O)[C@H](C(C)C)NC1=O [Romidepsin] | 1.005 ± 0.0092 | 1.02 ± 0.011 | 1.007 ± 0.0058 | 1.02 ± 0.015 | 0.9903 ± 0.0045 | 0.979 ± 0.019
11 | C/C=C1\NC(=O)[C@H]2CSSCC/C=C/[C@H](CC(=O)N[C@H](C(C)C)C(=O)N2)OC(=O)[C@H](C(C)C)NC1=O [Depsipeptide] | 6.37e-05 ± 0.001 | 1.05 ± 0.02 | 0.00143 ± 0.00036 | 1.027 ± 0.0058 | 0.00028 ± 0.00044 | 1.01
12 | O=C(O)CC[C@H]1CC[C@@](c2cc(F)ccc2F)(S(=O)(=O)c2ccc(Cl)cc2)CC1 | 0.9867 ± 0.0045 | 0.9977 ± 0.0021 | 0.998 ± 0.012 | 0.995 ± 0.023 | 0.9953 ± 0.0042 | 0.993 ± 0.001
13 | CCCN(CCC)C(=O)C(CCC(=O)O)NC(=O)c1ccccc1 (stereo not drawn) [Proglumide] | 0.9937 ± 0.0085 | 0.997 ± 0.029 | 1.007 ± 0.0058 | 1.04 ± 0.072 | 1.007 ± 0.0058 | 1.01 ± 0.016
